# Reference: the supplement of paper PMC8728848
# The list shows a part of the results.
# Experiments:
# Assay in all cases: glycan array binding signal (z-score within array); higher = stronger binding
# Settings in all cases: glycan notation: IUPAC condensed, linker removed
# [1] = molecular target: Man(a1-2)Man(a1-6)[Man(a1-3)]Man(a1-6)[Man(a1-2)Man(a1-2)Man(a1-3)]Man(b1-4)GlcNAc(b1-4)GlcNAc
# Method in brief: (§1)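 Negative Z-scores can be read as non-binding. The Z-score is calculated within each array and then averaged across arrays of one protein sequence at different concentrations or buffers and across linkers. Arrays, 3228 in all, were curated from the Consortium for Functional Glycomics database and kept only where the protein sequence was available.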
# Man(a1-3)[Man(a1-6)]Man = molecular target: Man(a1-3)[Man(a1-6)]Man
# Method in brief: as §1
# [2] = molecular target: Man(a1-3)[Man(a1-6)]Man(a1-6)[Man(a1-2)Man(a1-3)]Man(b1-4)GlcNAc(b1-4)GlcNAc
# Method in brief: as §1
# [3] = molecular target: Man(a1-3)[Man(a1-6)]Man(a1-6)[Man(a1-3)]Man
# Method in brief: as §1
# [4] = molecular target: Man(a1-3)[Man(a1-6)]Man(a1-6)[Man(a1-3)]Man(b1-4)GlcNAc(b1-4)GlcNAc
# Method in brief: as §1
# [5] = molecular target: Man(a1-3)[Man(a1-6)]Man(b1-4)GlcNAc(b1-4)GlcNAc
# Method in brief: as §1
# [6] = molecular target: Man(a1-3)[Man(a1-6)]Man(b1-4)GlcNAc(b1-4)[Fuc(a1-6)]GlcNAc
# Method in brief: as §1
# Man(a1-6)Man = molecular target: Man(a1-6)Man
# Method in brief: as §1
# Man(b1-4)GlcNAc = molecular target: Man(b1-4)GlcNAc
# Method in brief: as §1
# MurNAc(b1-4)GlcNAc = molecular target: MurNAc(b1-4)GlcNAc
# Method in brief: as §1
# Neu5Ac(a2-3)Gal = molecular target: Neu5Ac(a2-3)Gal
# Method in brief: as §1
# [7] = molecular target: Neu5Ac(a2-3)Gal(b1-3)GalNAc
# Method in brief: as §1
# [8] = molecular target: Neu5Ac(a2-3)Gal(b1-3)GalNAc(b1-3)Gal(a1-4)Gal(b1-4)Glc
# Method in brief: as §1
# [9] = molecular target: Neu5Ac(a2-3)Gal(b1-3)GalNAc(b1-3)Gal(b1-4)GlcNAc
# Method in brief: as §1
# [10] = molecular target: Neu5Ac(a2-3)Gal(b1-3)GalNAc(b1-4)[Neu5Ac(a2-3)]Gal(b1-4)Glc
# Method in brief: as §1
# [11] = molecular target: Neu5Ac(a2-3)Gal(b1-3)GalNAc(b1-4)[Neu5Ac(a2-8)Neu5Ac(a2-3)]Gal(b1-4)Glc
# Method in brief: as §1
# [12] = molecular target: Neu5Ac(a2-3)Gal(b1-3)GalNAc6S
# Method in brief: as §1
# [13] = molecular target: Neu5Ac(a2-3)Gal(b1-3)GlcNAc
# Method in brief: as §1
# [14] = molecular target: Neu5Ac(a2-3)Gal(b1-3)GlcNAc(b1-2)Man
# Method in brief: as §1
# [15] = molecular target: Neu5Ac(a2-3)Gal(b1-3)GlcNAc(b1-2)Man(a1-3)[GlcNAc(b1-4)][Neu5Ac(a2-3)Gal(b1-3)GlcNAc(b1-2)Man(a1-6)]Man(b1-4)GlcNAc(b1-4)GlcNAc
# Method in brief: as §1
# [16] = molecular target: Neu5Ac(a2-3)Gal(b1-3)GlcNAc(b1-2)Man(a1-3)[Neu5Ac(a2-3)Gal(b1-3)GlcNAc(b1-2)Man(a1-6)]Man(b1-4)GlcNAc(b1-4)GlcNAc
# Method in brief: as §1
# [17] = molecular target: Neu5Ac(a2-3)Gal(b1-3)GlcNAc(b1-3)Gal(b1-3)GlcNAc
# Method in brief: as §1
# [18] = molecular target: Neu5Ac(a2-3)Gal(b1-3)GlcNAc(b1-3)Gal(b1-4)GlcNAc
# Method in brief: as §1
# [19] = molecular target: Neu5Ac(a2-3)Gal(b1-3)GlcNAc(b1-3)GalNAc
# Method in brief: as §1
# [20] = molecular target: Neu5Ac(a2-3)Gal(b1-3)GlcNAc(b1-4)Gal(b1-4)Glc
# Method in brief: as §1
# [21] = molecular target: Neu5Ac(a2-3)Gal(b1-3)GlcNAc(b1-6)GalNAc
# Method in brief: as §1
# [22] = molecular target: Neu5Ac(a2-3)Gal(b1-3)GlcNAc6S
# Method in brief: as §1
# [23] = molecular target: Neu5Ac(a2-3)Gal(b1-3)[Fuc(a1-4)]GlcNAc
# Method in brief: as §1
# [24] = molecular target: Neu5Ac(a2-3)Gal(b1-3)[Fuc(a1-4)]GlcNAc(b1-3)Gal(b1-3)[Fuc(a1-4)]GlcNAc
# Method in brief: as §1
# [25] = molecular target: Neu5Ac(a2-3)Gal(b1-3)[Fuc(a1-4)]GlcNAc(b1-3)Gal(b1-4)[Fuc(a1-3)]GlcNAc
# Method in brief: as §1
# [26] = molecular target: Neu5Ac(a2-3)Gal(b1-3)[GlcNAc(b1-6)]GalNAc
# Method in brief: as §1
# [27] = molecular target: Neu5Ac(a2-3)Gal(b1-3)[Neu5Ac(a2-3)Gal(b1-4)]GlcNAc
# Method in brief: as §1
# [28] = molecular target: Neu5Ac(a2-3)Gal(b1-3)[Neu5Ac(a2-6)]GalNAc
# Method in brief: as §1
# [29] = molecular target: Neu5Ac(a2-3)Gal(b1-3)[Neu5Ac(a2-6)]GlcNAc(b1-3)[Fuc(a1-3)[Gal(b1-4)]GlcNAc(b1-6)]Gal(b1-4)Glc
# Method in brief: as §1
# [30] = molecular target: Neu5Ac(a2-3)Gal(b1-3)]Neu5Ac(a2-3)Gal(b1-4)]GlcNAc
# Method in brief: as §1
# Neu5Ac(a2-3)Gal(b1-4)Glc = molecular target: Neu5Ac(a2-3)Gal(b1-4)Glc
# Method in brief: as §1
# [31] = molecular target: Neu5Ac(a2-3)Gal(b1-4)GlcNAc
# Method in brief: as §1
binder,measurement,setting,value
Gal 8 (Homo sapiens) (protein) MLSLNNLQNIIYNPVIPYVGTIPDQLDPGTLIVICGHVPSDADRFQVDLQNGSSVKPRADVAFHFNPRFKRAGCIVCNTLINEKWGREEITYDTPFKREKSFEIVIMVLKDKFQVAVNGKHTLLYGHRIGPEKIDTLGIYGKVNIHSIGFSFSSDLQSTQASSLELTEISRENVPKSGTPQLQTVSPSWDLQGHGSETFCSVLWTRVFLEIAFCRPIGLTVASFQSLPFAARLNTPMGPGRTVVVKGEVNANAKSFNVDLLAGKSKDIALHLNPRLNIKAFVRNSFLQESWGEEERNITSFPFSPGMYFEMIIYCDVREFKVAVNGVHSLEYKHRFKELSSIDTLEINGDIHLLEVRSW,glycan array binding signal (z-score),[1],-0.469
same,glycan array binding signal (z-score),Man(a1-3)[Man(a1-6)]Man,-0.382
same,glycan array binding signal (z-score),[2],-0.55
same,glycan array binding signal (z-score),[3],-0.368
same,glycan array binding signal (z-score),[4],-0.545
same,glycan array binding signal (z-score),[5],-0.496
same,glycan array binding signal (z-score),[6],-0.357
same,glycan array binding signal (z-score),Man(a1-6)Man,-0.37
same,glycan array binding signal (z-score),Man(b1-4)GlcNAc,-0.392
same,glycan array binding signal (z-score),MurNAc(b1-4)GlcNAc,-0.357
same,glycan array binding signal (z-score),Neu5Ac(a2-3)Gal,-0.2
same,glycan array binding signal (z-score),[7],0.421
same,glycan array binding signal (z-score),[8],0.798
same,glycan array binding signal (z-score),[9],1.91
same,glycan array binding signal (z-score),[10],1.15
same,glycan array binding signal (z-score),[11],-0.308
same,glycan array binding signal (z-score),[12],0.619
same,glycan array binding signal (z-score),[13],0.664
same,glycan array binding signal (z-score),[14],0.02
same,glycan array binding signal (z-score),[15],-0.352
same,glycan array binding signal (z-score),[16],-0.328
same,glycan array binding signal (z-score),[17],2.53
same,glycan array binding signal (z-score),[18],0.762
same,glycan array binding signal (z-score),[19],-0.168
same,glycan array binding signal (z-score),[20],-0.356
same,glycan array binding signal (z-score),[21],-0.165
same,glycan array binding signal (z-score),[22],1.01
same,glycan array binding signal (z-score),[23],-0.374
same,glycan array binding signal (z-score),[24],-0.356
same,glycan array binding signal (z-score),[25],-0.214
same,glycan array binding signal (z-score),[26],-0.256
same,glycan array binding signal (z-score),[27],-0.317
same,glycan array binding signal (z-score),[28],-0.088
same,glycan array binding signal (z-score),[29],-0.214
same,glycan array binding signal (z-score),[30],-0.357
same,glycan array binding signal (z-score),Neu5Ac(a2-3)Gal(b1-4)Glc,0.714
same,glycan array binding signal (z-score),[31],0.003
